Source: PubChem BioAssay AID1345083 (National Center for Advancing Translational Sciences (NCATS), 2018)
Several values for one entry are separate records, joined by “and”; a condition that tells them apart may be missing. Equal entries are not always repeated. Screen size: about 94,000 compounds; about 6,200 (6.6%) were called active. Inconclusive results, whose numbers are uncertain, are shown with a selection of clear calls. Calls follow the shape of the dose curve; as a rule, active = well fitted inhibition curve with a large enough effect; inconclusive = small, poorly fitted or top-dose-only effect; inactive = flat fitted curve, though single readings scatter. Potencies beside an inconclusive call are fits to weak or partial responses and may not hold up.

Assay: Cytotoxic Profiling in HEK 293 Cell Line of Diverse Libraries Using Quantitative High-Throughput Screening; also: nearly all actives have a fitted effect of over 60% in size
Conditions: HEK 293 viability, ATP luminescence (CellTiter-Glo), 48-72 h; series mostly up to 115 µM
Procedure, shortened: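 HEK 293 cells seeded at 250 cells/well were exposed to compound for 48 or 72 hr at 37 degree Celsius. Viability taken as ATP content by CellTiter-Glo luminescence.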
Potency is read from the fitted curve at half-maximal effect; tags tell the direction and shape of the fitted curve.

SMILES	Potency
CNC(=O)c1cc(C2CC2)nc2c1c(C1CCCN(C(=O)c3ccc(Cl)nc3)C1)nn2C (configuration not stated)	inactive
COc1ccc(C2(c3nc(C4CC(=O)N(c5ccc(C)cc5)C4)no3)CC2)cc1 (configuration not stated)	inconclusive: 70.8 µM [inhibitor, single point]
COc1ccccc1-c1cccc(CN2CCC(NC(=O)C3CC3)CC2)c1	inconclusive: 56.2 µM [inhibitor, partial curve, poor fit]
CCCN(C)c1nccnc1OC1CCN(C(=O)c2ccoc2)C1 (configuration not stated)	inconclusive: 7.08 µM [inhibitor, full curve, poor fit]
COCC(=O)NC[C@@H]1C=C(C)[C@H](Cc2nc3ccc(F)cc3[nH]2)C[C@H]1C(C)C	inconclusive: 35.5 µM [inhibitor, partial curve, poor fit]
CN(C)c1cccc(C(=O)Nc2ccc3c(N4CCOCC4)ncnc3c2)c1	inconclusive: 50.1 µM [inhibitor, partial curve, poor fit]
COc1cc2c(cc1OC)C(CNC(=O)c1cccs1)N(C(=O)Nc1ccccc1F)CC2 (configuration not stated)	inconclusive: 31.6 µM [inhibitor, full curve, poor fit]
COc1ccc(-c2[nH]nc3ncc(C(=O)NCC(C)C)nc23)c(C)c1	inconclusive: 63.1 µM [inhibitor, partial curve, poor fit]
Cc1cc(C)nc(N2CC3(COCC(=O)N(Cc4cccc(OC(F)(F)F)c4)C3)C2)n1	inconclusive: 112 µM [inhibitor, partial curve]
CC(C)(C)C(=O)N1CCc2nc(C3CC3)nc(-c3ccc(Cl)cc3)c2C1	inconclusive: 89.1 µM [inhibitor, single point]
COc1ccc(C(=O)Nc2ccc3c(c2)CN(CCc2ccccc2)C(=O)C(C)O3)cc1OC (configuration not stated)	inconclusive: 50.1 µM [inhibitor, partial curve, poor fit]
CN1CCC(CN2CCC3(CC2)OCCN(c2ccc(F)cc2)C3=O)CC1	inconclusive: 100 µM [inhibitor, partial curve, poor fit]
COCc1cc(=O)n(CC(=O)Nc2cccc(C(C)=O)c2)c(N2CCOCC2)n1	inactive
CCC1(N2CCN(S(=O)(=O)c3ccc(F)cc3F)CC2)CCN(C(=O)C(C)C)C1 (configuration not stated)	inconclusive: 89.1 µM [inhibitor, single point]
Cc1ccc(CN2CCC3(CC2)CC(c2cccnc2)=NO3)cc1	inconclusive: 112 µM [inhibitor, partial curve, poor fit] and active: 79.4 µM
COc1ccc(C(=O)Nc2ccc(-c3noc([C@@H]4CCCN4Cc4ccc(OC(F)(F)F)cc4)n3)cn2)cc1	inconclusive: 17.8 µM [inhibitor, full curve, poor fit]
Cc1ccc(CN2CCOC[C@H]2c2ncc(-c3cccc(F)c3)[nH]2)cc1	active: 70.8 µM
O=C(NC1CCN(c2cc(-c3cccs3)[nH]n2)CC1)c1ccccc1	inconclusive: 35.5 µM [inhibitor, partial curve, poor fit]
O=C(C1CCCC1)N1CCn2c(nn(-c3ccncc3)c2=O)C1	inconclusive: 70.8 µM [inhibitor, partial curve, poor fit]
O=C1NC(=NC2CCCC2)C2(CCCN(Cc3cccnc3)C2)N1c1cccnc1 (configuration not stated)	inactive
Cc1ccc(-c2ccc3nnc(CNC(=O)COc4cccc(C)c4)n3n2)cc1	inconclusive: 89.1 µM [inhibitor, partial curve, poor fit]

SMILES	Potency
Cc1cc(C)cc(C(=O)N2CCN(c3cc(-c4ccc(Cl)cc4)[nH]n3)CC2)c1	active: 39.8 µM
O=C(NCc1ccc(F)cc1)c1ccc(N2CC3CC(C2)[C@H]2CCCC(=O)N2C3)nc1 (some centres not stated)	inactive
COC(=O)[C@@H]1Cc2ncn(C(C)C)c2CN1S(=O)(=O)c1ccc([N+](=O)[O-])cc1	inactive
Cc1ccc(CN2CCCCCCN(C)C(=O)[C@@H]3CCC[C@@H]32)s1	inconclusive: 56.2 µM [inhibitor, partial curve, poor fit]
O=C(NC1CC1)c1nc2sccn2c1-c1ccc(F)cc1	inactive
CC(C)OCCNc1nccc(C2(c3ccccc3Cl)CCNCC2)n1	inconclusive: 50.1 µM [inhibitor, partial curve, poor fit]
O=C(NCC1CCCO1)c1ccc(-c2ccc(N3CCCCC3)nc2)cc1 (configuration not stated)	inactive
N#Cc1cccc(C(=O)N2CCC3(CC2)CC(CO)N(C(=O)c2ccccc2)C3)c1 (configuration not stated)	inactive
CCOc1ccc(CN2CCN(C/C=C/c3ccccc3OC)CC2CCO)cc1 (configuration not stated)	active: 20 µM
O=C(NCC1CCN(c2cc(-c3ccc(Cl)cc3)[nH]n2)CC1)c1ccc2nc[nH]c2c1	inconclusive: 50.1 µM [inhibitor, partial curve, poor fit]
CCOC(=O)[C@@H]1CN(C(=O)c2cc3ccccc3s2)[C@H]2c3ccc(OC)cc3O[C@@H]12	inconclusive: 28.2 µM [inhibitor, full curve]
O=C(c1cccnc1)N1CCC(OC2CCN(c3ccccc3)CC2)CC1	inconclusive: 25.1 µM [inhibitor, partial curve, poor fit]
O=C1N(C2CCN(S(=O)(=O)c3cccnc3)CC2)C(c2ccccc2)C12CCCC2 (configuration not stated)	inconclusive: 50.1 µM [inhibitor, partial curve, poor fit]
O=C(Nc1cccc(C(F)(F)F)c1)N1C[C@@H](F)[C@@H](OCc2nc3ccccc3[nH]2)C1	active: 100 µM
CCN(Cc1ccncc1)C(=O)c1ccc(C2CCNC2)cc1 (configuration not stated)	inactive
COCc1noc(CC2CCOC3(CCN(C(=O)c4c[nH]c5ccccc45)CC3)C2)n1 (configuration not stated)	inconclusive: 89.1 µM [inhibitor, partial curve, poor fit]
COc1ccccc1C(=O)N1CCN(c2nccc(Nc3ccccc3Cl)n2)CC1	inconclusive: 31.6 µM [inhibitor, partial curve, poor fit]
CC(C)C[C@@H]1N[C@H](C(=O)NCC2CC2)Cc2c[nH]c3cccc1c23	active: 35.5 µM
COCCCNC(=O)C(NC(=O)C1CC1)C1CCN(C(=O)c2ccccc2)CC1 (configuration not stated)	inactive
COc1ccc(-c2cnc3[nH]cc(CC(=O)Nc4ccncc4)c3c2)cc1	inconclusive: 70.8 µM [inhibitor, partial curve, poor fit]
O=C(CCC(F)(F)F)N1CCC2(CCCN(CC3CCCCC3)C2=O)C1 (configuration not stated)	inactive

SMILES	Potency
Cc1ccccc1-c1cc(-c2c(C)noc2C)cc2c1C(=O)N(C)C2	inconclusive: 56.2 µM [inhibitor, partial curve, poor fit]
CNC(=O)c1cc(C)nc2onc(C3CCN([S+](=O)([O-])c4cccs4)CC3)c12	inconclusive: 79.4 µM [inhibitor, single point]
Cc1nc(-c2ccccc2)n(CC(=O)Nc2cccc(C#N)c2)c(=O)c1CCO	active: 39.8 µM
Cc1nn(-c2ccccn2)c(C)c1[C@@H]1C=C[C@@H](NC(=O)c2cccs2)C1	inconclusive: 100 µM [inhibitor, partial curve, poor fit]
COc1ncccc1CNC[C@H]1Cn2c(-c3ccc(F)cc3)cnc2CO1	inactive
O=C(NCc1ccc(Cl)cc1)c1nc2sccn2c1-c1ccc(C(F)(F)F)cc1	inconclusive: 22.4 µM [inhibitor, full curve, poor fit]
CCCCn1c(=O)c(C(=O)NCCc2ccc(F)cc2)nc2cccnc21	inconclusive: 50.1 µM [inhibitor, partial curve, poor fit]
O=C(c1ccc(F)cc1)N1CCC(Cc2nc(-c3cnccn3)no2)CC1	inconclusive: 44.7 µM [inhibitor, partial curve, poor fit]
COc1ccc(CNC[C@H]2Cn3c(-c4ccc(Cl)cc4)cnc3CO2)cn1	inconclusive: 70.8 µM [inhibitor, partial curve, poor fit]
COc1ccc(CC(=O)NC2CCN(c3ccc4nnc(-c5ccccc5)n4n3)C2)cc1 (configuration not stated)	inconclusive: 70.8 µM [inhibitor, partial curve, poor fit]
Cc1ccsc1C(=O)N1CCCC2(CC1)CN(C)C(=O)O2 (configuration not stated)	inactive
CNC(=O)CCn1ncc2cc(OCc3ccccc3-c3ccccc3Cl)ccc21	inconclusive: 56.2 µM [inhibitor, partial curve, poor fit]
O=C(C1CCN([S+](=O)([O-])c2cccs2)CC1)N1CCCC(c2nc3ccncc3[nH]2)C1 (configuration not stated)	inactive
CC(Oc1ccccc1)C(=O)N1CCC2(CC1)NC(=O)N(c1ccccc1Cl)N2 (configuration not stated)	inconclusive: 39.8 µM [inhibitor, partial curve]
CCc1nc(-c2ccc(OC3CCN(CCc4ccccc4)C3)cc2)no1 (configuration not stated)	inconclusive: 89.1 µM [inhibitor, partial curve, poor fit]
O=C(Nc1cccc(F)c1)N1Cc2[nH]cnc2C[C@H]1c1nc(-c2ccc(Cl)cc2)no1	active: 79.4 µM
O=C(C1CC1)N1CCC2(CC1)CCN(CCc1ccccc1)c1ccccc1O2	inconclusive: 50.1 µM [inhibitor, partial curve, poor fit]
CSc1cccc(NC(=O)c2ccc3c(c2)N(C)C2CCCCCN2C3=O)c1 (configuration not stated)	active: 17.8 µM
Cc1ccc(Cn2c(-c3ccc(F)cc3)nc(C)c(CCO)c2=O)cc1C	inconclusive: 100 µM [inhibitor, single point]
CN(C)S(=O)(=O)N1CCCC(CCc2cccc(F)c2)C1 (configuration not stated)	inconclusive: 50.1 µM [inhibitor, partial curve, poor fit]
